In the supplement of paper PMC12645437, “Orthogonal IMiD-Degron Pairs Induce Selective Protein Degradation in Cells” (ACS Chemical Biology, 2025):
The list shows a part of the results.

target: no compound (DMSO); experiment: log2 fold change of degron read counts, EGFP-low vs EGFP+ sorted cells; higher = lower degron-EGFP level without compound (poor expression or instability); settings: compound: DMSO control; 18 h
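Also: jurkat cells carrying a lentiviral library of mutant zinc finger degrons fused to EGFP plus mCherry, mCherry+ cells FACS sorted, degron abundance counted by next-generation sequencing.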

Row | Sequence | log2 fold change of degron read counts
1 | FGCPICGAFFTQKGNLLRHIKL | 0.285
2 | FCCNQCGHAFTQKGNLLRHIKL | -0.0218
3 | FFCEVCGARFTQKGNLLRHIKL | -1.71
4 | FICEICGRRFTQKGNLLRHIKL | -1.14
5 | FMCNQCGRDFTQKGNLLRHIKL | -0.797
6 | LQCNQCGFGCTQKGNLLRHIKL | -0.276
7 | FTCSVCGHDFTQKGNLLRHIKL | -2.02
8 | FACEICGHTFTQKGNLLRHIKL | -2.32
9 | FFCPICGALFTQKGNLLRHIKL | 1.12
10 | FVCEICGAMFTQKGNLLRHIKL | -1.3
11 | LVCEICGFVCTQKGNLLRHIKL | -0.347
12 | FKCEVCGAWFTQKGNLLRHIKL | -0.58
13 | FECDICGAPFTQKGNLLRHIKL | -1.21
14 | FHCEVCGARFTQKGNLLRHIKL | -1.75
